Several values for one entry are separate records, joined by “and”; a condition that tells them apart may be missing. Equal values may be shown once. This list was built around the results that the source calls inconclusive (neither active nor inactive); the mix of calls is not that of the screen. For some assays here: Potencies beside an inconclusive call are fits to weak or partial responses and may not hold up. Activity calls are given as the source filed them. Unless noted, calls come from the whole dose curve; as a rule, active = well fitted curve in the direction sought with a large enough effect in the repeat runs; inconclusive = weak or mixed curves; inactive = no such curve, though single readings can be large; an effect the other way counts as inactive or inconclusive.
Key:
[1] = qHTS assay for identifying genotoxic compounds that show differential cytotoxicity against isogenic chicken DT40 cell lines with known DNA damage response pathways - wild type cell line (AID 743012); settings: DT40 wild type chicken cells viability, CellTiter-Glo, 40 h; activity change, negative = cytotoxicity: at 68.4 µM (top of the series) unless noted; note: nearly all actives have a fitted effect of over 60% in size; note: potency is the fitted concentration of half-maximal effect; for activity change, negative = cytotoxicity: % is set by controls: 0 for no effect and ±100 for the full control effect
How it was run: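 Luminescent ATP viability signal (CellTiter-Glo, 30 min RT) recorded after wild type DT40 cells were incubated with compounds for 40 h at 37 C/5% CO2.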

[2] = qHTS assay for identifying genotoxic compounds that show differential cytotoxicity against isogenic chicken DT40 cell lines with known DNA damage response pathways - Rad54/Ku70 mutant cell line (AID 743015); settings: DT40 Rad54/Ku70 mutant viability, CellTiter-Glo, 40 h; activity change, negative = cytotoxicity: at 66.8 µM (top of the series); note: nearly all actives have a fitted effect of over 60% in size; note: potency is the fitted concentration of half-maximal effect; for activity change, negative = cytotoxicity: % is set by controls: 0 for no effect and ±100 for the full control effect
[3] = molecular target: Estrogen receptor (Homo sapiens) (UniProt P03372); assay: qHTS assay to identify small molecule antagonists of the estrogen receptor alpha (ER-alpha) signaling pathway (AID 743069; active = well fitted curve in the direction sought with a large enough effect in the signal ratio in the repeat runs, not every such curve was filed as active; inconclusive = weak or mixed curves, or effect the other way; inactive = no such curve, though single readings can be large or run the other way; the % refers to the signal ratio; note: % is set by controls: 0 for no effect and ±100 for the full control effect); settings: HEK293 ER-alpha-UAS-bla, beta-lactamase ratio, antagonist mode; activity, negative = inhibition: at 69.4 µM (top of the series) unless noted
How it was run: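 In this cell-based reporter format, GripTite HEK293 cells harbouring ER-alpha-UAS-bla were grown overnight with 2% charcoal-stripped FBS, dosed with DMSO-dissolved compounds, then challenged with 17beta-estradiol. After 18 hr at 37C, beta-lactamase activity was detected by FRET fluorescence.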

[4] = qHTS assay to identify small molecule antagonists of the estrogen receptor alpha (ER-alpha) signaling pathway using the BG1 cell line (AID 743080; calls by dose curve;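 note: BG1 cells stimulated with 17beta-estradiol alongside compound; potency is the fitted concentration of half-maximal effect; nearly all actives have a fitted effect of over 25% in size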); settings: BG1Luc4E2 ERE-luciferase antagonist mode, luminescence; activity change, negative = inhibition: at 70.3 µM (top of the series) unless noted
How it was run: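 Seeding, 24 h rest, compound transfer from DMSO, 17beta-estradiol addition, 21.5 h incubation, CellTiter-Fluor (30 min, 37 C), then ONE-Glo (30 min, room temperature): this sequence was run on BG1-Luc-4E2 reporter cells.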

[5] = qHTS assay to identify small molecule antagonists of the androgen receptor (AR) signaling pathway - cell viability counter screen (AID 743033; note: potency is the fitted concentration of half-maximal effect; nearly all actives have a fitted effect of over 45% in size); settings: AR-bla HEK293 viability, CellTiter-Glo luminescence, 16 h; activity change, negative = cytotoxicity: at 58.5 µM (top of the series) unless noted
[6] = qHTS assay to identify small molecule antagonists of the estrogen receptor alpha (ER-alpha) signaling pathway using the BG1 cell line - cell viability counter screen (AID 743081); settings: BG1Luc4E2 viability, CellTiter-Fluor, 22 h; activity change, negative = cytotoxicity: at 70.3 µM (top of the series) unless noted;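 note: compound given together with 17beta-estradiol as the ER stimulus; potency is the fitted concentration of half-maximal effect; nearly all actives have a fitted effect of over 45% in size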
[7] = qHTS assay to identify small molecule antagonists of the estrogen receptor alpha (ER-alpha) signaling pathway - cell viability counter screen (AID 743074; calls by dose curve; note: % is set by controls: 0 for no effect and ±100 for the full control effect; nearly all actives have a fitted effect of over 45% in size); settings: ERalpha-bla HEK293 viability, CellTiter-Glo luminescence, 18 h; series mostly up to 69.4 µM
[8] = molecular target: Estrogen receptor (Homo sapiens) (UniProt P03372); assay: qHTS assay to identify small molecule agonists of the estrogen receptor alpha (ER-alpha) signaling pathway using the BG1 cell line (AID 743079); settings: BG1Luc4E2 cells, ERE-luciferase agonist, 22 h; activation: at 70.3 µM (top of the series) unless noted; note: % is set by controls: 0 for no effect and ±100 for the full control effect; nearly all actives have a fitted effect of over 20% in size
[9] = qHTS assay to identify small molecule antagonists of the androgen receptor (AR) signaling pathway using the MDA cell line - cell viability counter screen (AID 743041; note: % is set by controls: 0 for no effect and ±100 for the full control effect; nearly all actives have a fitted effect of over 45% in size); settings: MDA-kb2 viability, CellTiter-Fluor, 16 h, cells co-treated with R1881 androgen agonist; viability change, negative = cytotoxic: at 70.3 µM (top of the series) unless noted
How it was run: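 Compound exposure lasted 16 h at 37C in MDA-kb2 AR-luc cells stimulated with R1881. Protease-based CellTiter-Fluor reagent was applied for the final 30 min and fluorescence measured.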

[10] = qHTS assay to identify small molecule antagonists of the thyroid receptor (TR) signaling pathway - cell viability counter screen (AID 743064); settings: GH3.TRE-Luc viability, CellTiter-Fluor, 24 h; activity change, negative = cytotoxic: at 70.3 µM (top of the series) unless noted; note: potency is the fitted concentration of half-maximal effect; nearly all actives have a fitted effect of over 50% in size
How it was run: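 CellTiter-Fluor readout, 30 min at 37 °C/5% CO2, following 23.5 h incubation of GH3.TRE-Luc cells with test compound and 1 nM T3 (final).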

Aromatase (Homo sapiens) = Aromatase (Homo sapiens) (UniProt P11511); assay: qHTS assay to identify aromatase inhibitors (AID 743083); settings: MCF-7 aro ERE, testosterone-driven ERE luciferase, 24 h; activity, negative = inhibition: at 70.3 µM (top of the series); note: potency is the fitted concentration of half-maximal effect; nearly all actives have a fitted effect of over 55% in size
[11] = molecular target: Androgen receptor (Homo sapiens) (UniProt P10275); assay: qHTS assay to identify small molecule antagonists of the androgen receptor (AR) signaling pathway (AID 743035; active = well fitted inhibition curve with a large enough effect in the signal ratio in the repeat runs, not every such curve was filed as active; inconclusive = weak or mixed curves, or effect the other way; inactive = no such curve, though single readings can be large or run the other way; the % refers to the signal ratio; note: % is set by controls: 0 for no effect and ±100 for the full control effect); settings: HEK293 AR-UAS-bla, R1881-stimulated, beta-lactamase FRET, 16 h; activity change, negative = inhibition: at 58.5 µM (top of the series) unless noted
How it was run: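 Quantitative HTS of the Tox21 10K library used HEK293 AR-UAS-bla cells stimulated with R1881 alongside compound for 16 h at 37C, followed by beta-lactamase FRET detection (LiveBLAzer B/G, 2 h, RT).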

[12] = molecular target: Androgen receptor (Homo sapiens) (UniProt P10275); assay: qHTS assay to identify small molecule antagonists of the androgen receptor (AR) signaling pathway using the MDA cell line (AID 743042; note: potency is the fitted concentration of half-maximal effect; nearly all actives have a fitted effect of over 55% in size); settings: MDA-kb2 AR-luc, MMTV luciferase, R1881 antagonist, 16 h; series mostly up to 70.3 µM
How it was run: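 MDA-kb2 breast carcinoma cells carrying MMTV-luciferase (AR/GR responsive) were co-treated with compounds and the agonist R1881 for 16 h at 37C. Inhibition read as ONE-Glo luminescence; CellTiter-Fluor fluorescence measured in parallel for cytotoxicity.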

[13] = qHTS assay to identify small molecule antagonists of the thyroid receptor (TR) signaling pathway (AID 743065); settings: GH3.TRE-Luc, T3-stimulated luciferase inhibition, 23.5 h; series mostly up to 70.3 µM; note: potency is the fitted concentration of half-maximal effect; nearly all actives have a fitted effect of over 55% in size
How it was run: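 GH3.TRE-Luc rat pituitary cells (two TREs driving luciferase) were dosed with compound, then stimulated with 1 nM T3 (final) for 23.5 h at 37 C. ONE-Glo luminescence was the read-out, with CellTiter-Fluor fluorescence as the cytotoxicity counter-screen.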
Tags give direction and shape of the fitted curve.

Sequence of UniProt P11511 (P11511 whole entry, looked up): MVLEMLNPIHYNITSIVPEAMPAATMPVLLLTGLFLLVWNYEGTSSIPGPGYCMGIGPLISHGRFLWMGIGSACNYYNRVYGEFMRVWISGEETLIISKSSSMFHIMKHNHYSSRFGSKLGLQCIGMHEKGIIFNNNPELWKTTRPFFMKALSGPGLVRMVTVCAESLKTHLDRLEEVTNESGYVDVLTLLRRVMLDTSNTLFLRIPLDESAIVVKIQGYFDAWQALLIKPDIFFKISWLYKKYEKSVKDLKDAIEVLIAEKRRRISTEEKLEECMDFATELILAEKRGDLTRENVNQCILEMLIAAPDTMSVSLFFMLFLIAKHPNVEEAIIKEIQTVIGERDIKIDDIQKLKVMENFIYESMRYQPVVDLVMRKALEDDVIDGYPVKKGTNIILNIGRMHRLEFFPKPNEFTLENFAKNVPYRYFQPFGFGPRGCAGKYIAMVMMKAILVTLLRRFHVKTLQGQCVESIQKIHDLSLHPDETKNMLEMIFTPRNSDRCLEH
Sequence of UniProt P03372 (P03372 whole entry, looked up): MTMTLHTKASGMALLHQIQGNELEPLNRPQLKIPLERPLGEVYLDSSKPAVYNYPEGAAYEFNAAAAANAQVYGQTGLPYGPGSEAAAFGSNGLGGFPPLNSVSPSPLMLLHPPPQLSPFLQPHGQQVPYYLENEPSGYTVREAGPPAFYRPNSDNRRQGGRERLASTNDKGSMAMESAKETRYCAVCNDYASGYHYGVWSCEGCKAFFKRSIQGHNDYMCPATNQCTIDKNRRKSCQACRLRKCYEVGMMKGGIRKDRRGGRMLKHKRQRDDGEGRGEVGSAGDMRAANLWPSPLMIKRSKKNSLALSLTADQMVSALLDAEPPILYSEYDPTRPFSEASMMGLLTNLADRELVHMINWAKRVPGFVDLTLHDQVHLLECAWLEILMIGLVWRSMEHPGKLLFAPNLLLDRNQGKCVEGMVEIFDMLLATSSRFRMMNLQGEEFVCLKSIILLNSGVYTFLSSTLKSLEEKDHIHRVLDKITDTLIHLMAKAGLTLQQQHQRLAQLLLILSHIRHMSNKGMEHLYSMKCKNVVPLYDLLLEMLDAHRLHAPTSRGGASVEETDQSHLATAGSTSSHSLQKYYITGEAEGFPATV
Sequence of UniProt P10275 (P10275 whole entry, looked up): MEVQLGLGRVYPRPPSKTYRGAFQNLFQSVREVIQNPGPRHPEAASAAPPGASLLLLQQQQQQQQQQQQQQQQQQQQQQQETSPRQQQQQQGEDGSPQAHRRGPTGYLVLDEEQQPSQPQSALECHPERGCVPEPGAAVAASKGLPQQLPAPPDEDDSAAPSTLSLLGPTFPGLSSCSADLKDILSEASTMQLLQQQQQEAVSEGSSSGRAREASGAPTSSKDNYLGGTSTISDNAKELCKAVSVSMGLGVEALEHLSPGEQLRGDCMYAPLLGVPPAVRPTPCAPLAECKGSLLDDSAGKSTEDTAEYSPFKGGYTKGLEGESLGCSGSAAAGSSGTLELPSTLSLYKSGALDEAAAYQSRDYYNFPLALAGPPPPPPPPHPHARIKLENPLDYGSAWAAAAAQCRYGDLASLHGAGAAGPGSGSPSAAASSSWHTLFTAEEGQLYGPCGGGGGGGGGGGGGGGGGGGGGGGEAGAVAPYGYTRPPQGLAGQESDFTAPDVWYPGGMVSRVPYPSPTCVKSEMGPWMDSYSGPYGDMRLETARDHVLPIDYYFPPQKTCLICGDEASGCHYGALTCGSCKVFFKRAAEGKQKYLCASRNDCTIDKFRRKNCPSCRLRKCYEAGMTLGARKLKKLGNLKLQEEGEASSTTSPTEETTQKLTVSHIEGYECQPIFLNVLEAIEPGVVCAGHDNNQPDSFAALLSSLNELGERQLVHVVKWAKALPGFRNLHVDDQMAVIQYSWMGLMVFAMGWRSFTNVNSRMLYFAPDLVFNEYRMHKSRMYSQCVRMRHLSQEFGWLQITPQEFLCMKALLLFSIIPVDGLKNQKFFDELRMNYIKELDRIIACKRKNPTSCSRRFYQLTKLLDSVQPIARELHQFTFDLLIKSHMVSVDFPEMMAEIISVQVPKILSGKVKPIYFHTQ

CCC(=O)O[C@]1(C(=O)SCF)[C@H](C)C[C@H]2[C@@H]3C[C@H](F)C4=CC(=O)C=C[C@]4(C)[C@@]3(F)[C@@H](O)C[C@@]21C
Potency [1]: inconclusive: 10.1 µM [cytotoxic, partial curve]
Potency [2]: inconclusive: 11.4 µM [cytotoxic, partial curve]
activity, negative = inhibition [3]: inconclusive: 27.9% [at 32.6 µM]
Potency [4]: inconclusive: 0.0014 µM [rising, full curve]

CC(COc1ccccc1)N(CCCl)Cc1ccccc1 (stereo unspecified)
Potency [1]: active: 21.1 µM and inconclusive: 69.3 µM [cytotoxic, single point] and active: 27.3 µM
Potency [2]: inconclusive: 69.3 µM [cytotoxic, single point]
Potency [5]: inconclusive: 44.1 µM [cytotoxic, partial curve, poor fit]
Potency [6]: inconclusive: 55 µM [cytotoxic, partial curve, poor fit] and inconclusive: 61.1 µM [cytotoxic, single point]

COC(=O)CC(=O)C(C)(C)C
Potency [1]: inactive
Potency [2]: inconclusive: 68.6 µM [cytotoxic, single point]
Potency [7]: inactive
Potency [8]: inactive

C=CC(=O)OCCC#N
Potency [1]: inconclusive: 69 µM [cytotoxic, single point]
Potency [2]: inconclusive: 30.8 µM [cytotoxic, partial curve]
Potency [9]: inactive
Potency [10]: inconclusive: 69 µM [cytotoxic, single point]
Potency (Aromatase (Homo sapiens)): inconclusive: 69 µM [inhibitor, single point]

Cc1cccc(Nc2ccccc2)c1
Potency [1]: inconclusive: 61.1 µM [cytotoxic]
Potency [5]: inconclusive: 54.9 µM [cytotoxic]
activity change, negative = inhibition [11]: inconclusive: -26.1%
Potency [12]: inconclusive: 24.3 µM [inhibitor, partial curve, poor fit]
Potency [10]: inconclusive: 68.6 µM [cytotoxic, partial curve, poor fit]
Potency [13]: inconclusive: 48.6 µM [inhibitor, partial curve]
Potency (Aromatase (Homo sapiens)): inconclusive: 30.6 µM [inhibitor, partial curve, poor fit]

CCOC(=O)CC(C(C)=O)C(C)=O
Potency [1]: inactive
Potency [2]: inactive
